In paper PMC12820563, “FoxP3 forms a head-to-head dimer in vivo and stabilizes its multimerization on adjacent microsatellites” one finds binding signal data, which are given here for 31 sequences.

The list shows a part of the results.

The assay addresses T1, MBP-FoxP1dN (Mus musculus, UniProt P58462 326-579).
T1 sequence: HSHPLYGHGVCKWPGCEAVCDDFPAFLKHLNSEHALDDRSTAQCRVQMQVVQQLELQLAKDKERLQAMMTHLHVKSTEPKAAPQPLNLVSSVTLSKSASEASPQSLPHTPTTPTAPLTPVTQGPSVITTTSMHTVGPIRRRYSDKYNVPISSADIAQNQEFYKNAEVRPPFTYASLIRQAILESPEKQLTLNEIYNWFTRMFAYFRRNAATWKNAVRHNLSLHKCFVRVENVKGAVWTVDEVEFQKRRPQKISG
Put plainly: PD-seq (MBP pull-down with sequencing); 20 mM Tris-HCl pH 7.5, 100 mM NaCl, 1.5 mM MgCl2, 0.4 uM protein, 0.1 uM dsDNA library, 30 min, room temperature, amylose pull-down; high values mean tight binding. Conditions: protein: recombinant; tags: His6-MBP; chain copies: 2; dsDNA, one strand shown. The method, boiled down:
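E. coli-expressed mouse FoxP3 or FoxP1 fragment, N-terminus removed and tagged with His6-MBP, was used at 0.4 µM against 0.1 µM of a Klenow-filled degenerate double-stranded DNA library. After 30 min at room temperature in Tris pH 7.5 buffer with NaCl and MgCl2, complexes were pulled down on amylose resin and washed three times. Binding is pull-down over input reads-per-million enrichment from pooled replicates of the proteinase K-released, PCR-barcoded, Illumina-sequenced DNA.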
Regarding “GATGATTGTTCTCCCAGCTGATGAATTATTCTCCTCGAGTAAACAAATTTTCCTAATCTTTCTGTTCAAGCGCCATCTAC”, the binding signal was 0.985 RPM ratio (pull-down/input). For “GATGATTGTTCTCCCAGCTGATGAATTTACCAACTCGAGTAAACAAATTTTCCTAATCTTTCTGTTCAAGCGCCATCTAC”, the binding signal is 1.28 RPM ratio (pull-down/input). As for “GATGATTGTTCTCCCAGCTGATGAATTCCGGAACTCGAGTAAACAAATTTTCCTAATCTTTCTGTTCAAGCGCCATCTAC”, the binding signal was 0.816 RPM ratio (pull-down/input).

Consider “GATGATTGTTCTCCCAGCTGATGAATTCACATCGTCGAGTAAACAAATTTTCCTAATCTTTCTGTTCAAGCGCCATCTAC”, for which the binding signal was 0.935 RPM ratio (pull-down/input). “GATGATTGTTCTCCCAGCTGATGAATTCCGCGTTTCGAGTAAACAAATTTTCCTAATCTTTCTGTTCAAGCGCCATCTAC”: the binding signal is 0.884 RPM ratio (pull-down/input). The value for “GATGATTGTTCTCCCAGCTGATGAATTATGACGCTCGAGTAAACAAATTTTCCTAATCTTTCTGTTCAAGCGCCATCTAC” was 1.09 RPM ratio (pull-down/input); that for “GATGATTGTTCTCCCAGCTGATGAATTGACCACATCGAGTAAACAAATTTTCCTAATCTTTCTGTTCAAGCGCCATCTAC” was 1.1 RPM ratio (pull-down/input); that for “GATGATTGTTCTCCCAGCTGATGAATTATGTGCTTCGAGTAAACAAATTTTCCTAATCTTTCTGTTCAAGCGCCATCTAC” was 1.09 RPM ratio (pull-down/input). Regarding “GATGATTGTTCTCCCAGCTGATGAATTTACAGAATCGAGTAAACAAATTTTCCTAATCTTTCTGTTCAAGCGCCATCTAC”, the binding signal was 1.48 RPM ratio (pull-down/input). The figure for “GATGATTGTTCTCCCAGCTGATGAATTTTCACTCTCGAGTAAACAAATTTTCCTAATCTTTCTGTTCAAGCGCCATCTAC” is 0.782 RPM ratio (pull-down/input); for “GATGATTGTTCTCCCAGCTGATGAATTATCCCGGTCGAGTAAACAAATTTTCCTAATCTTTCTGTTCAAGCGCCATCTAC” it is 0.916 RPM ratio (pull-down/input); for “GATGATTGTTCTCCCAGCTGATGAATTTCCTTGTTCGAGTAAACAAATTTTCCTAATCTTTCTGTTCAAGCGCCATCTAC” it is 0.868 RPM ratio (pull-down/input). With “GATGATTGTTCTCCCAGCTGATGAATTTGGTACGTCGAGTAAACAAATTTTCCTAATCTTTCTGTTCAAGCGCCATCTAC”, the binding signal was 0.997 RPM ratio (pull-down/input). Regarding “GATGATTGTTCTCCCAGCTGATGAATTCTCCACCTCGAGTAAACAAATTTTCCTAATCTTTCTGTTCAAGCGCCATCTAC”, the binding signal was 0.779 RPM ratio (pull-down/input).

As for “GATGATTGTTCTCCCAGCTGATGAATTGGCCTGATCGAGTAAACAAATTTTCCTAATCTTTCTGTTCAAGCGCCATCTAC”, the binding signal was 0.759 RPM ratio (pull-down/input). In the case of “GATGATTGTTCTCCCAGCTGATGAATTTCGGCTGTCGAGTAAACAAATTTTCCTAATCTTTCTGTTCAAGCGCCATCTAC”, the binding signal is 0.82 RPM ratio (pull-down/input). Consider “GATGATTGTTCTCCCAGCTGATGAATTTTCTGTATCGAGTAAACAAATTTTCCTAATCTTTCTGTTCAAGCGCCATCTAC”, for which the binding signal is 1.08 RPM ratio (pull-down/input). On to “GATGATTGTTCTCCCAGCTGATGAATTCTATAAGTCGAGTAAACAAATTTTCCTAATCTTTCTGTTCAAGCGCCATCTAC”, for which the binding signal was 0.915 RPM ratio (pull-down/input). Regarding “GATGATTGTTCTCCCAGCTGATGAATTTCCGTCCTCGAGTAAACAAATTTTCCTAATCTTTCTGTTCAAGCGCCATCTAC”, the binding signal is 0.797 RPM ratio (pull-down/input).

As to “GATGATTGTTCTCCCAGCTGATGAATTACAGACGTCGAGTAAACAAATTTTCCTAATCTTTCTGTTCAAGCGCCATCTAC”, the binding signal is 1.01 RPM ratio (pull-down/input). On to “GATGATTGTTCTCCCAGCTGATGAATTCTAGCGATCGAGTAAACAAATTTTCCTAATCTTTCTGTTCAAGCGCCATCTAC”, for which the binding signal is 0.884 RPM ratio (pull-down/input). For “GATGATTGTTCTCCCAGCTGATGAATTTCGTACTTCGAGTAAACAAATTTTCCTAATCTTTCTGTTCAAGCGCCATCTAC”, the binding signal is 0.893 RPM ratio (pull-down/input). Turning to “GATGATTGTTCTCCCAGCTGATGAATTAACTTATTCGAGTAAACAAATTTTCCTAATCTTTCTGTTCAAGCGCCATCTAC”, the binding signal is 0.885 RPM ratio (pull-down/input). As to “GATGATTGTTCTCCCAGCTGATGAATTAAGAGGCTCGAGTAAACAAATTTTCCTAATCTTTCTGTTCAAGCGCCATCTAC”, the binding signal is 0.988 RPM ratio (pull-down/input). As for “GATGATTGTTCTCCCAGCTGATGAATTAATGCACTCGAGTAAACAAATTTTCCTAATCTTTCTGTTCAAGCGCCATCTAC”, the binding signal was 1.54 RPM ratio (pull-down/input). As to “GATGATTGTTCTCCCAGCTGATGAATTATGAAGCTCGAGTAAACAAATTTTCCTAATCTTTCTGTTCAAGCGCCATCTAC”, the binding signal was 0.829 RPM ratio (pull-down/input). As to “GATGATTGTTCTCCCAGCTGATGAATTCTAAATCTCGAGTAAACAAATTTTCCTAATCTTTCTGTTCAAGCGCCATCTAC”, the binding signal is 0.882 RPM ratio (pull-down/input). As for “GATGATTGTTCTCCCAGCTGATGAATTGAGAGTTTCGAGTAAACAAATTTTCCTAATCTTTCTGTTCAAGCGCCATCTAC”, the binding signal was 0.911 RPM ratio (pull-down/input). As for “GATGATTGTTCTCCCAGCTGATGAATTAACTCTATCGAGTAAACAAATTTTCCTAATCTTTCTGTTCAAGCGCCATCTAC”, the binding signal is 0.964 RPM ratio (pull-down/input). On to “GATGATTGTTCTCCCAGCTGATGAATTTGGCCTGTCGAGTAAACAAATTTTCCTAATCTTTCTGTTCAAGCGCCATCTAC”, for which the binding signal was 0.807 RPM ratio (pull-down/input). In the case of “GATGATTGTTCTCCCAGCTGATGAATTCATGCGATCGAGTAAACAAATTTTCCTAATCTTTCTGTTCAAGCGCCATCTAC”, the binding signal is 0.917 RPM ratio (pull-down/input).
